# Assay results as given in PubChem BioAssay AID2675 (National Center for Advancing Translational Sciences (NCATS), 2010).
# About 100 (0.036%) of roughly 280,000 compounds were called active. Inconclusive means that the source gave no clear call. Such entries were picked first, then a sample of the others. Calls come from the whole dose curve; as a rule, active = well fitted inhibition curve with a large enough effect in the signal ratio, with a control signal flat (not every such curve was filed as active); inconclusive = small, poorly fitted or top-dose-only effect, or effect the other way, or a change in a side signal; inactive = no such curve, though single readings can be large or run the other way; the % refers to the signal ratio. Potencies beside an inconclusive call are fits to weak or partial responses and may not hold up. A note “side channel” means that the fit belongs to a control or component signal, not to the main read-out.
# Target: Muscleblind-like protein 1 (Homo sapiens) (UniProt Q9NR56)
# Chain of UniProt Q9NR56 (Q9NR56 whole entry, looked up): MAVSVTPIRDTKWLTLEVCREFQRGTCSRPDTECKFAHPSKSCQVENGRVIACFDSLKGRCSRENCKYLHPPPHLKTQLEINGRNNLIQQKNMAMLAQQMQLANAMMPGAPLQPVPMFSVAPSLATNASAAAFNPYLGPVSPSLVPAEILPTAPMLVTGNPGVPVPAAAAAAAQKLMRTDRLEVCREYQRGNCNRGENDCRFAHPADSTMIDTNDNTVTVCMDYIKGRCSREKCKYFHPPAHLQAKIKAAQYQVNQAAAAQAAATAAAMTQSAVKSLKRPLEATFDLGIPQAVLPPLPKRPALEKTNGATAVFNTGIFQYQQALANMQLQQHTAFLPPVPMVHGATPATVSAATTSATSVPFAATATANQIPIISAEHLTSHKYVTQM
# Assay: qHTS Assay for Inhibitors of MBNL1-poly(CUG) RNA binding
# Conditions: TR-FRET MBNL1-His/biotin-(CUG)12 binding, 665/545 ratio; activity change, negative = inhibition: at 57.5 µM (top of the series)
# In short: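 Compounds (final 92 nM to 58 uM) are added to His-tagged MBNL1 and biotin-(CUG)12, then terbium anti-His antibody and streptavidin-XL665 (5 nM final). After 60 min at room temperature, the 665/545 nm ratio is read.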
# % is set by controls: 0 for no effect and ±100 for the full control effect; potency is the fitted concentration of half-maximal effect; tags give direction and shape of the fitted curve or compound fluorescence and quenching.
Compound,Potency,"activity change, negative = inhibition"
COc1cc(/C=C2\SC(=Nc3c(C)n(C)n(-c4ccccc4)c3=O)NC2=O)ccc1O,"inconclusive: 31.6 µM [quencher, side channel, single point]",
CCN1C(=O)c2ccc(C(=O)Nc3nccs3)cc2C1=O,"inconclusive: 8.91 µM [quencher, side channel, partial curve]",
COC(=O)c1cc(S(=O)(=O)N2CCN(c3ccc([N+](=O)[O-])cc3)CC2)c[nH]1,"inconclusive: 2.51 µM [quencher, side channel, full curve, poor fit]",
CCCCN1/C(=C/c2ccc3ccccc3[n+]2CC)Sc2ccccc21,"inconclusive: 14.1 µM [quencher, side channel, partial curve]",
Cc1ccc(-n2nc(-c3ccccc3)cc2Nc2ccccc2N)cc1,"inconclusive: 0.398 µM [quencher, side channel, full curve]",
Cc1cc(NC(=O)/C=C\C(=O)O)c([N+](=O)[O-])cc1C,"inconclusive: 14.1 µM [quencher, side channel, partial curve]",
COc1ccc(NC(=O)C2=CC(c3ccco3)=NS(=O)(=O)N2C)cc1,"inconclusive: 12.6 µM [quencher, side channel, partial curve]",
O=C(NC1CC1)c1sc2cc([N+](=O)[O-])ccc2c1Cl,"inconclusive: 10 µM [quencher, side channel, partial curve]",
O=C(c1ccc2c(=O)n(Cc3ccccc3Cl)c(=S)[nH]c2c1)N1CCOCC1,,inactive: -0.395%
COC(=O)C1=C(C(=O)OC)[C@@H]2Nc3ccccc3[C@@]23C[C@@H](C(=O)OC)N=C3N1,"inconclusive: 35.5 µM [fluorescent, side channel, single point]",
O=S(=O)(NCc1cccnc1)c1ccc2c(c1)OCCO2,"inconclusive: 2.51 µM [quencher, side channel, full curve, poor fit]",
CC(C)CCNC(=O)CN(C)S(=O)(=O)c1cccc2nsnc12,"inconclusive: 15.8 µM [quencher, side channel, partial curve]",
CCOC(=O)/C(C#N)=C/c1c(Oc2cc(C)cc(C)c2)nc2ccccn2c1=O,"inconclusive: 0.501 µM [fluorescent, side channel, single point]",
O=C1c2ccccc2C(=O)N1n1cccc1,"inconclusive: 15.8 µM [quencher, side channel, partial curve]",
Cc1cnc(NC(=O)CSc2nnc(-c3ccccc3)n2Cc2ccccc2)s1,"inconclusive: 0.794 µM [quencher, side channel, single point]",
Cn1c2c(c(=O)n(C)c1=O)NC1(N2)C(=O)Nc2ccccc21 (stereo not drawn),"inconclusive: 10 µM [quencher, partial curve, poor fit]",
O=C(NCCN1CCOCC1)c1ccc(N2CCCC2)c([N+](=O)[O-])c1,"inconclusive: 8.91 µM [quencher, partial curve]",
Cc1cc(C)c(C#N)c(SCCS(=O)(=O)c2ccc(Cl)cc2)n1,,inactive: 16.1%
CC1(C)Cc2c(cnn2-c2cccc(F)c2)C(NC(=O)CCN2CCCC2=O)C1 (stereo not drawn),,inactive: 10.2%
O=C(Nc1cccc(-c2nc3cccnc3s2)c1)c1cccnc1Cl,"inconclusive: 22.4 µM [quencher, side channel, single point]",

Compound,Potency,"activity change, negative = inhibition"
CCOC(=O)c1cc(-c2ccc(OC)cc2)nc2c1c(C)nn2CCC(N)=S,"inconclusive: 31.6 µM [quencher, side channel, single point]",
O=[N+]([O-])c1ccc(C2=Nn3cnnc3SC2)cc1,"inconclusive: 3.16 µM [quencher, side channel, partial curve]",
S=C(Nc1ccc(Cl)cc1)N(CCCN1CCOCC1)Cc1cccs1,,inactive: -4.95%
CCOc1ccccc1CNC(=O)c1c([N+](=O)[O-])c(C)nn1C,"inconclusive: 39.8 µM [quencher, side channel, single point]",
CCOC(=O)c1c(-c2ccc(C)cc2)csc1/N=C/N(C)C,"inconclusive: 39.8 µM [quencher, side channel, single point]",
Cc1cc(C)n2c(SCC(=O)Nc3cc(C)on3)nnc2n1,,inactive: -5.98%
Cc1ccccc1N1CCN(C(=O)CN2C(=O)c3ccccc3C2=O)CC1,"inconclusive: 22.4 µM [quencher, side channel, partial curve]",
O=C1c2ccccc2-c2ccc(C(=O)N3CCCCC3)cc21,"inconclusive: 14.1 µM [quencher, side channel, partial curve]",
CC1(C)CC(=O)C(C(O)c2ccc([N+](=O)[O-])cc2)C(C)(C)N1 (stereo not drawn),"inconclusive: 14.1 µM [quencher, side channel, partial curve]",
O=[N+]([O-])c1ccc(N=NN(CCO)CCO)cc1,"inconclusive: 17.8 µM [quencher, side channel, partial curve]",
CC1(C)C2CCC(C2)C1(C)N=C1OC(CCl)CS1 (stereo not drawn),"inconclusive: 6.31 µM [fluorescent, side channel, single point]",
COc1ccc(-c2sc3ccc(N4CCOCC4)cc3c2-c2ccc(OC)c(F)c2)cc1,,inactive: 12.1%
CC1CCN(C(=O)COC(=O)CCCN2C(=O)c3cccc4cccc(c34)C2=O)CC1,"inconclusive: 14.1 µM [quencher, side channel, partial curve]",
O=C(NCCO)c1cccc2c1C(=O)c1ccccc1-2,"inconclusive: 10 µM [quencher, side channel, partial curve]",
CCN(CC)CCNC(=O)c1ccc(NC(=O)/C=C/c2ccc3ccccc3n2)cc1,"inconclusive: 14.1 µM [quencher, side channel, partial curve]",
Cc1c(C(=O)Nc2ccc(Cl)cn2)oc2ccccc12,"inconclusive: 0.794 µM [quencher, side channel, full curve]",
COc1ccc(OC)c2sc(NC(=O)C(C)C)nc12,,inactive: -6.37%
C/C(=N/NC(=O)CNC(=O)c1ccccn1)c1cccc([N+](=O)[O-])c1,"inconclusive: 15.8 µM [quencher, side channel, partial curve]",
CCC(C)NC(=O)c1cc2cc3ccc(OC)cc3nc2o1 (stereo not drawn),"inconclusive: 11.2 µM [quencher, side channel, partial curve]",
CCOc1ccccc1N1CCN(C(=O)/C=C/c2cccc([N+](=O)[O-])c2)CC1,"inconclusive: 15.8 µM [quencher, side channel, partial curve]",

Compound,Potency,"activity change, negative = inhibition"
O=C(Cc1ccc([N+](=O)[O-])cc1)NNC(=O)c1cccs1,"inconclusive: 28.2 µM [quencher, side channel, partial curve]",
N#C/C(=C\c1ccc(N2CCOCC2)cc1)c1ccccc1,"inconclusive: 25.1 µM [quencher, side channel, single point]",
CCOC(=O)Cc1csc(NC(=O)CSc2nnc(-c3ccc(C)cc3)o2)n1,,inactive: 6.92%
O=C(CSC(=S)N1CCCCC1)Nc1nc(-c2ccccc2)c(-c2ccccc2)o1,,inactive: 4.32%
Cc1cc2c(NC(=O)Nc3ccccc3)cccc2nn1,"inconclusive: 12.6 µM [quencher, side channel, partial curve]",
CC1=NN(Cc2ccccc2)C(=O)/C1=C/c1ccc(N(C)C)cc1,"inconclusive: 7.94 µM [quencher, side channel, partial curve]",
CCOC(=O)NC(=O)COC(=O)c1ccc(Sc2ncn[nH]2)c([N+](=O)[O-])c1,"inconclusive: 15.8 µM [quencher, partial curve]",
Cc1ccc(N2CCN(C(=O)N3CCOCC3)CC2)cc1C,"inconclusive: 39.8 µM [quencher, side channel, single point]",
CCOC(=O)C1=C(Cc2ccc(OC)cc2)C(=O)c2ccccc2C1=O,"inconclusive: 20 µM [quencher, side channel, partial curve]",
C=CCOn1c(=O)c(-c2ccc(OC)c(OC)c2)[n+]([O-])c2ccccc21,"inconclusive: 14.1 µM [quencher, partial curve]",
O=C(NC1CCCC1)c1cnn2c(C(F)(F)F)cc(-c3ccco3)nc12,"inconclusive: 25.1 µM [quencher, side channel, single point]",
CC(C)c1ccc(-c2c(C#N)c(N)nc(SCC(=O)N3CCCCCC3)c2C#N)cc1,"inconclusive: 4.47 µM [fluorescent, full curve]",
O=[N+]([O-])c1ccc(N2CCOCC2)cc1SCc1ccco1,"inconclusive: 22.4 µM [quencher, side channel, single point]",
Cc1c(NC(=O)/C(C#N)=C/c2c(Oc3ccccc3)nc3ccccn3c2=O)c(=O)n(-c2ccccc2)n1C,"inconclusive: 14.1 µM [quencher, side channel, partial curve]",
O=C(N=Nc1c(O)n(Cc2ccccc2)c2ccccc12)c1ccncc1,"inconclusive: 7.08 µM [quencher, partial curve]",
Clc1ccc2oc(-c3ccccc3)cc(=NCCCN3CCOCC3)c2c1,"inconclusive: 22.4 µM [quencher, side channel, partial curve]",
CCOC(=O)/C(=N/Nc1ccc(OC)cc1)Sc1nnc(CCc2ccccc2)n1-c1ccccc1,"inconclusive: 7.08 µM [quencher, side channel, full curve]",
CC1=NN(c2ccccc2)C(=O)/C1=C/C=C/C=C/N(C)C,"inconclusive: 11.2 µM [quencher, side channel, partial curve]",
